Test results published in the supplement of paper PMC9446081.
Hit rate of the full screen: of about 39,000 compounds, about 220 (0.56%) showed activity. This is one part of the list.
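Note: static incubation at 37 °C against the wild-type strain, values averaged over two biological replicates.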

What follows are molecules tested on Escherichia coli K-12 BW25113 (assay: relative growth (OD600 normalised to plate interquartile mean) (fraction); higher = less growth inhibition, active = 0.2 or less). Conditions: 50 µM; LB; incubation time: overnight (16-24 h).
In the case of C[C@@H]1CN([C@@H](C)CO)C(=O)Cc2cc(NC(=O)Nc3ccc(C(F)(F)F)cc3)ccc2O[C@@H]1CN(C)C(=O)Nc1ccccc1, the relative growth is reported as inactive: 1.04. For C[C@@H]1CCCCO[C@H](CN(C)Cc2ccncc2)[C@@H](C)CN([C@H](C)CO)C(=O)c2cc(NC(=O)Nc3ccc(C(F)(F)F)cc3)ccc2O1, the relative growth was inactive: 1.07. In the case of CC(C)NC(=O)N(C)C[C@@H]1Oc2ccc(NS(=O)(=O)c3cccs3)cc2CC(=O)N([C@@H](C)CO)C[C@@H]1C, the relative growth is reported as inactive: 0.973. CCO[C@H]1OC(C(=O)N2CCOCC2)=C[C@@H](c2coc3ccccc3c2=O)[C@@H]1CCCOC(=O)NCCCCCC(=O)NO was tested, and the relative growth was inactive: 0.988. With CCCC(=O)Nc1ccc2c(c1)C(=O)N(C)[C@@H]1CC[C@H](CC(=O)NCCN3CCCCC3)O[C@@H]1CO2 the relative growth was inactive: 1.01. With C[C@@H]1CN([C@@H](C)CO)C(=O)c2cc(NC(=O)CCN3CCOCC3)ccc2O[C@@H]1CN(C)S(=O)(=O)c1ccc(F)cc1 the relative growth was inactive: 0.991. In the case of C[C@@H]1CN([C@@H](C)CO)S(=O)(=O)c2ccc(C#Cc3cccnc3)cc2O[C@H]1CN(C)CC1CCCC1, the relative growth is reported as inactive: 1.03. C[C@H](CO)N1C[C@H](C)[C@@H](CN(C)C(=O)CCC(F)(F)F)OCCCC[C@H](C)Oc2ccc(NC(=O)CCC(F)(F)F)cc2C1=O was tested, and the relative growth was inactive: 1. With C[C@H](CO)N1C[C@H](C)[C@@H](CN(C)C(=O)C2CCOCC2)Oc2cc(C#Cc3ccncc3)ccc2S1(=O)=O the relative growth was inactive: 0.964. C[C@@H]1CN([C@H](C)CO)C(=O)c2cc(NC(=O)Cn3cnnn3)ccc2O[C@H]1CN(C)S(=O)(=O)c1cn(C)cn1 was tested, and the relative growth was inactive: 0.996. With COc1ccc([C@@H]([C@H](Cc2ccccc2)OC(C)=O)N2C[C@@H](CC(=O)N(C)C)[C@@H]3C(=NO[C@H]3c3ccccc3)[C@@H]2Cc2ccccc2)cc1 the relative growth was inactive: 1.02. In the case of COc1ccc(C#Cc2ccc3c(c2)[C@]2(C(=O)N3)[C@H](c3ccc(O)cc3)N3[C@H](c4ccccc4)[C@H](c4ccccc4)OC(=O)[C@H]3[C@@H]2C(=O)O)cc1, the relative growth is reported as inactive: 1.01. CCC(=O)n1ccc(C(=O)N2CCOCC2)n1 was tested, and the relative growth was inactive: 1.05. For Cc1cccc(O)c1, the relative growth was inactive: 0.977. For COc1ccc(S(=O)(=O)Nc2ccc3c(c2)C(=O)N([C@H](C)CO)C[C@H](C)[C@H](CN(C)C(=O)Nc2c(C)noc2C)OCCCC[C@@H](C)O3)cc1, the relative growth was inactive: 0.973. With C[C@H](CO)N1C[C@H](C)[C@H](CN(C)C(=O)Nc2ccc(C(F)(F)F)cc2)Oc2ccc(NC(=O)Cn3cnnn3)cc2CC1=O the relative growth was inactive: 0.998. C[C@H](CO)N1C[C@H](C)[C@@H](CN(C)S(=O)(=O)c2cccs2)Oc2c(NC(=O)C3CCOCC3)cccc2C1=O was tested, and the relative growth was inactive: 1. With CC(=O)ON1C(C)(C)C=C(C(N)=O)C1(C)C the relative growth was inactive: 1.01. C[C@@H]1CCCCO[C@@H](CN(C)C(=O)Nc2ccc(C(F)(F)F)cc2)[C@@H](C)CN([C@H](C)CO)C(=O)c2cc(NC(=O)c3ccccc3)ccc2O1 was tested, and the relative growth was inactive: 1.02. C[C@H](CO)N1C[C@H](C)[C@@H](CN(C)Cc2ccc(Oc3ccccc3)cc2)Oc2ccc(NC(=O)Cc3ccccc3)cc2C1=O was tested, and the relative growth was inactive: 1.04. C[C@H]1CN([C@@H](C)CO)C(=O)Cc2cc(NC(=O)CCN3CCOCC3)ccc2O[C@@H]1CN(C)S(=O)(=O)c1cccs1 was tested, and the relative growth was inactive: 0.981. For Nc1c(C(=O)O)cnc2nc(N3CCOCC3)nn12, the relative growth was inactive: 0.964. For COc1ccc(S(=O)(=O)N(C)C[C@@H]2OCCCC[C@H](C)Oc3ccc(NC(=O)Nc4ccc(C(F)(F)F)cc4)cc3C(=O)N([C@H](C)CO)C[C@@H]2C)cc1, the relative growth was inactive: 1.05. COc1ccc(NC(=O)N(C)C[C@H]2Oc3ccc(NC(=O)C4CC4)cc3C(=O)N([C@@H](C)CO)C[C@@H]2C)cc1 was tested, and the relative growth was inactive: 1.01. For C[C@@H]1CCCCO[C@@H](CN(C)C(=O)NC2CCCCC2)[C@H](C)CN([C@H](C)CO)C(=O)c2cc(NS(=O)(=O)c3ccccc3)ccc2O1, the relative growth was inactive: 1.02. With C[C@H]1CN([C@@H](C)CO)S(=O)(=O)c2ccc(C3=CCCC3)cc2O[C@H]1CN(C)C(=O)C1CCOCC1 the relative growth was inactive: 1.01. With Cc1ccc(S(=O)(=O)Nc2ccc3c(c2)C(=O)N([C@H](C)CO)C[C@@H](C)[C@@H](CN(C)S(=O)(=O)c2ccc(C)cc2)OCCCC[C@@H](C)O3)cc1 the relative growth was inactive: 1.02. C[C@]12CC3CC(N)(C1)C[C@@](C)(C3)C2 was tested, and the relative growth was inactive: 1.05. For CNC[C@H]1OCCCC[C@@H](C)Oc2ccc(NC(=O)c3ccncc3)cc2C(=O)N([C@H](C)CO)C[C@@H]1C, the relative growth was inactive: 1.02. N=C(N)SCCc1cnc[nH]1 was tested, and the relative growth was inactive: 1.03. With Cc1noc(C)c1S(=O)(=O)Nc1ccc2c(c1)C(=O)N([C@@H](C)CO)C[C@H](C)[C@@H](CN(C)C(=O)Nc1ccc(C(F)(F)F)cc1)OCCCC[C@H](C)O2 the relative growth was inactive: 1.02. With CCCNC(=O)[C@@H]1c2ccccc2C(=O)N(Cc2cc(F)cc(C(F)(F)F)c2)[C@H]1c1ccc(CO)cc1 the relative growth was inactive: 1. C[C@@H]1CCCCO[C@@H](CN(C)S(=O)(=O)c2cccs2)[C@@H](C)CN([C@@H](C)CO)C(=O)c2cc(NC(=O)Nc3ccc(C(F)(F)F)cc3)ccc2O1 was tested, and the relative growth was inactive: 0.986. For C[C@@H]1CCCCO[C@H](CN(C)C(=O)C2CCCCC2)[C@H](C)CN([C@H](C)CO)C(=O)c2cc(NC(=O)Nc3ccccc3)ccc2O1, the relative growth was inactive: 1.03. Cc1noc(C)c1S(=O)(=O)N(C)C[C@@H]1Oc2ccc(NS(=O)(=O)c3ccc(Cl)cc3)cc2C(=O)N([C@@H](C)CO)C[C@@H]1C was tested, and the relative growth was inactive: 0.993. For C=CC[C@@H](CC(=O)N[C@@H](CO)Cc1ccccc1)C(=O)NC[C@@H](OC(=O)[C@@H](CC=C)Cc1ccc(F)cc1)c1ccccc1, the relative growth was inactive: 1.04. With CN(C)CC(=O)N[C@H]1CC[C@@H](CCNC(=O)C2CC2)O[C@H]1CO the relative growth was inactive: 0.984. With C[C@@H]1CCCCO[C@@H](CN(C)C(=O)Nc2ccc3c(c2)OCO3)[C@H](C)CN([C@@H](C)CO)C(=O)c2cc(NC(=O)c3ccncc3)ccc2O1 the relative growth was inactive: 1.02. With COc1ccc(S(=O)(=O)Nc2cccc3c2O[C@@H](CN(C)S(=O)(=O)c2ccccc2)[C@H](C)CN([C@@H](C)CO)C3=O)cc1 the relative growth was inactive: 1.01. With Cc1ccc(S(=O)(=O)Nc2ccc3c(c2)C(=O)N([C@H](C)CO)C[C@H](C)[C@H](CN(C)C(=O)NC2CCCCC2)OCCCC[C@@H](C)O3)cc1 the relative growth was inactive: 0.991. In the case of CC(C)N1C(=O)[C@@]2(Cc3ccccc31)c1ccccc1C(=O)N(Cc1ccccc1Cl)[C@H]2c1ccc(CO)cc1, the relative growth is reported as inactive: 0.94. In the case of COc1cccc(NC(=O)N(C)C[C@H]2Oc3cc(C#CC4(O)CCCC4)ccc3S(=O)(=O)N([C@@H](C)CO)C[C@@H]2C)c1, the relative growth is reported as inactive: 1.01. In the case of Cc1cc(C)cc(C(=O)N(C)[C@H](Cc2ccc(-c3ccccc3)cc2)C(=O)N[C@@H](Cc2c[nH]c3ccccc23)C(=O)O)c1, the relative growth is reported as inactive: 0.909. With C[C@H]1CN([C@@H](C)CO)C(=O)Cc2cc(NC(=O)Cn3cnnn3)ccc2O[C@@H]1CN(C)C(=O)Nc1ccc(C(F)(F)F)cc1 the relative growth was inactive: 0.983. With C[C@@H]1CN([C@@H](C)CO)S(=O)(=O)c2ccc(Br)cc2O[C@H]1CN(C)C(=O)c1ccc2c(c1)OCO2 the relative growth was inactive: 1.01. With C[C@@H]1CN([C@H](C)CO)C(=O)Cc2cc(NS(=O)(=O)c3ccc(F)cc3)ccc2O[C@@H]1CN(C)C(=O)Nc1cccc2ccccc12 the relative growth was inactive: 1.03. In the case of C[C@@H]1CCCCO[C@H](CN(C)Cc2ccccc2)[C@@H](C)CN([C@H](C)CO)C(=O)c2cc(NC(=O)C3CCCCC3)ccc2O1, the relative growth is reported as inactive: 0.995. With C[C@H](CO)N1C[C@H](C)[C@@H](CN(C)S(=O)(=O)c2ccc(F)cc2)Oc2c(NS(=O)(=O)c3cccs3)cccc2C1=O the relative growth was inactive: 0.974. In the case of C[C@@H]1CN([C@@H](C)CO)C(=O)c2cccc(NS(C)(=O)=O)c2O[C@@H]1CN(C)Cc1ccc2c(c1)OCO2, the relative growth is reported as inactive: 1.01. In the case of C[C@@H]1CN([C@H](C)CO)C(=O)CCCn2nncc2CO[C@H]1CN(C)S(=O)(=O)c1ccc(Oc2ccccc2)cc1, the relative growth is reported as inactive: 1.01. For CO[C@H]1CN(C)C(=O)c2cc(NC(=O)Nc3cccc(F)c3)ccc2OC[C@H](C)N(C(=O)Nc2c(C)noc2C)C[C@H]1C, the relative growth was inactive: 0.98. For CN(C)Cc1cn(CC[C@H]2CC[C@H](NS(=O)(=O)c3ccccc3)[C@H](CO)O2)nn1, the relative growth was inactive: 0.996. In the case of C[C@@H]1CCCCO[C@H](CN(C)S(=O)(=O)c2ccccc2)[C@@H](C)CN([C@@H](C)CO)C(=O)c2cc(NC(=O)c3ccccc3)ccc2O1, the relative growth is reported as inactive: 1.03. C[C@@H]1CCCCO[C@@H](CN(C)C(=O)NC2CCCCC2)[C@@H](C)CN([C@@H](C)CO)C(=O)c2cc(NC(=O)CCC(F)(F)F)ccc2O1 was tested, and the relative growth was inactive: 0.989. With C[C@H](CO)N1C[C@H](C)[C@@H](CN(C)Cc2ccccc2)OCCCC[C@H](C)Oc2ccc(NC(=O)c3ccncc3)cc2C1=O the relative growth was inactive: 0.995. With C[C@@H]1CN([C@H](C)CO)C(=O)Cc2cc(NC(=O)C3CCCCC3)ccc2O[C@@H]1CN(C)Cc1ccc(-c2ccccc2)cc1 the relative growth was inactive: 1. For COc1cc(OC)c2c(=O)c(O)c(-c3ccc(OC)c(OC)c3)oc2c1, the relative growth was inactive: 0.932. For C[C@@H]1CN([C@@H](C)CO)C(=O)c2cc(NS(=O)(=O)c3ccc(F)cc3)ccc2O[C@H]1CN(C)C(=O)Nc1ccc(C(F)(F)F)cc1, the relative growth was inactive: 0.951.
